Results on 43 compounds are retold here after paper PMC4336329 (PLoS ONE, 2015).

Out of some 310,000 compounds screened, about 14,000 (4.5%) showed an effect of 50% or more. The effect is printed as a negative number. The list shows a part of the results.
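Further: peak tail current of the secondary pulse compared with the same well before compound.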

human ether-à-go-go-related gene (hERG) potassium channel, sequence (Q12809 whole entry, looked up): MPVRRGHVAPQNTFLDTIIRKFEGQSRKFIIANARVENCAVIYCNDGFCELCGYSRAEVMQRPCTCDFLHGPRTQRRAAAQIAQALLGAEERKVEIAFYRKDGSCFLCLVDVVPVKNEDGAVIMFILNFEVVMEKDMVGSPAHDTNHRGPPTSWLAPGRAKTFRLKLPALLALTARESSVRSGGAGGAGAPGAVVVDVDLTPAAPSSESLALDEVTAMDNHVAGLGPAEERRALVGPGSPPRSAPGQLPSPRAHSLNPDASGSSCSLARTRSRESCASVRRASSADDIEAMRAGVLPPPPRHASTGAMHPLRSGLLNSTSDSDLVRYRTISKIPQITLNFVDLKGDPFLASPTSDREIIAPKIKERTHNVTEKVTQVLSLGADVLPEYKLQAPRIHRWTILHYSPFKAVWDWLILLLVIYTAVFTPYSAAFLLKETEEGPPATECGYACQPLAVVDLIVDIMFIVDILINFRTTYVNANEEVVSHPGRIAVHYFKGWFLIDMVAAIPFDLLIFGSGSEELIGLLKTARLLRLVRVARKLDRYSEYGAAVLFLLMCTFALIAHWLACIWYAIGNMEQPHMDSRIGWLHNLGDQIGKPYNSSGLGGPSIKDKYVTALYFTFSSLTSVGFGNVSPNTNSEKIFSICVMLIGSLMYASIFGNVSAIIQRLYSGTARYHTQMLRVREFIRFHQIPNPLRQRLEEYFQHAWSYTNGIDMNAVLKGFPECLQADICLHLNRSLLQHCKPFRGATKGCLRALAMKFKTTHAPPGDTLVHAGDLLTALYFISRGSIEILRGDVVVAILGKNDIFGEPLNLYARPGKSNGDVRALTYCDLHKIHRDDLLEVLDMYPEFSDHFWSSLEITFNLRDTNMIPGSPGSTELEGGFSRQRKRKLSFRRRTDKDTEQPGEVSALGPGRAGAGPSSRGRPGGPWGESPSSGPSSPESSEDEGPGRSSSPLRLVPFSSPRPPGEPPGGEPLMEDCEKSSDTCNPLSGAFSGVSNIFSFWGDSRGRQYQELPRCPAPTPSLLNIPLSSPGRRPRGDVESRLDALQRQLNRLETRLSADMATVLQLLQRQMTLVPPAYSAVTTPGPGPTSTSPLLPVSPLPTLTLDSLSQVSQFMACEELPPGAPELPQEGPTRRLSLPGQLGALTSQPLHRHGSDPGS

This test concerns the target human ether-à-go-go-related gene (hERG) potassium channel (human, UniProt Q12809). Description: primary screen, population patch clamp on CHO cells stably expressing hERG.
As for `N#Cc1c2n(cnc1=O)CCCCC2`, the “hERG current change (%, negative = inhibition) at 10uM” value was 21.8%. For `COc1ccc(CC(=O)NCCc2cnc[nH]2)cc1` the value was 17.5%; for `COC(=O)c1nc2nc(C)cc(=O)n2[nH]1`, 20.2%; for `COC(=O)COc1ccc(C(C2C(=O)CC(C)(C)CC2=O)C2C(=O)CC(C)(C)CC2=O)cc1`, 15.8%. The figure for `CC(=O)Nc1nonc1NC(=O)CSC1=NCCS1` is 11.3%; for `Clc1ccc(SCc2cn3cccnc3n2)cc1` it is -15.5%; for `CSc1nnc2c(n1)OC(c1ccccn1)N(C(C)=O)c1ccccc1-2` (stereo not shown) it is 1.42%.

On to `Cc1cccc(N2CCN(C(=O)c3ccc(NC(=O)C4CCCO4)cc3)CC2C)c1` (stereo not shown), for which the “hERG current change (%, negative = inhibition) at 10uM” value is given as 0.848%. As for `COc1ccc([N+](=O)[O-])cc1NS(=O)(=O)c1ccc(C)cc1`, the “hERG current change (%, negative = inhibition) at 10uM” value was found to be 0.188%. The figure for `O=C(NCC(=O)N1CCN(c2ccccc2O)CC1)c1cccs1` is 3.84%; for `Cc1c(C#N)c2ccccc2n1CC(=O)NCC1CCCO1` (stereo not shown) it is 16.8%. For `Br.COc1ccc(-c2cn3c(n2)CCC3)cc1` the value was -2.5%; for `O=C(CN(C(=O)C1CSC(=O)C1)c1ccc(F)cc1)NCc1ccc2c(c1)OCO2` (stereo not shown), 6.05%. As for `Nc1nnc(SCC(=O)OCC(=O)c2ccccc2Br)s1`, the “hERG current change (%, negative = inhibition) at 10uM” value stood at 22%.

For the compound `Nc1nonc1OCCCCOc1nonc1N`, the “hERG current change (%, negative = inhibition) at 10uM” value was 22.1%. As to `Cc1ccc(S(=O)(=O)CC(=O)N(CCCN(C)C)c2nc3ccc(C)cc3s2)cc1.Cl`, the “hERG current change (%, negative = inhibition) at 10uM” value is on record as -43.9%. `Cc1ccc(OCC(=O)O)c(-n2nc3ccccc3n2)c1`: the “hERG current change (%, negative = inhibition) at 10uM” value is given as 9.62%. Take `Cc1ccc(C)c(N2CCN(S(=O)(=O)c3ccc4[nH]c(=O)c(=O)[nH]c4c3)CC2)c1`: the “hERG current change (%, negative = inhibition) at 10uM” value is 10.9%. For `CCOc1ccccc1NC(=O)Cn1ncc2ccc([N+](=O)[O-])cc21`, the “hERG current change (%, negative = inhibition) at 10uM” value is -3.28%.

`Cc1ccc(CNC(=O)Cn2c([N+](=O)[O-])cnc2C)cc1`: the “hERG current change (%, negative = inhibition) at 10uM” value was 11.3%.

For the compound `CN1N=C(C(=O)NC2CCCc3c2cnn3-c2ccc(F)cc2F)CCC1=O` (stereo not shown), the “hERG current change (%, negative = inhibition) at 10uM” value is on record as -1.13%. The figure for `O=C1N=C(N2CCC(Cc3ccccc3)CC2)S/C1=C/c1cn[nH]c1-c1ccccc1` is -2.87%; for `CCCCCc1cc(=O)[nH]c(=S)[nH]1` it is 21.6%; for `O=S1(=O)N=CN(Cc2cccc(F)c2)c2ccccc21` it is 2.85%. For `CCc1ccc(-c2cc(C)no2)cc1S(=O)(=O)N1CCN(c2cccc(C)c2C)CC1` the value was 18.3%; for `Cc1ccc(C)c(N2CCN(CC3CC=CCC3)CC2)c1` (stereo not shown), -7.32%. As for `COc1ccccc1CN1C[C@@H]2C[C@@H](c3ccccc3C)N3CCC[C@@]23C1=O`, the “hERG current change (%, negative = inhibition) at 10uM” value worked out at 17.4%. Consider `CC[C@H](C)Cc1cn([C@@H](CCCCNC(=O)OC(C)(C)C)C(=O)NCCCCCCCCCCC(=O)N2CCN(C(=O)OC(C)(C)C)CC2)nn1`, for which the “hERG current change (%, negative = inhibition) at 10uM” value was -7.18%. For `O=C(CN1C(=O)NC2(CCCCCC2)C1=O)NC1CCCCCCC1` the value was 12.8%; for `O=C(Nc1cccc(F)c1)NC1(C(=O)NCC2CCCO2)CCCCC1` (stereo not shown), 14.4%; for `O=C(Nc1cc(Cl)ccc1O)c1cc2n(n1)C(C(F)(F)F)CC(c1ccc3c(c1)OCO3)N2` (stereo not shown), -4.28%. For `O=C(CCC(=O)c1ccc(Oc2ccccc2)cc1)Nc1ccc(Cl)cc1Cl` the value was 5.46%; for `COc1ccccc1NC(=O)c1ccc(NS(=O)(=O)c2ccc(F)c(Cl)c2)cc1`, 7.49%. Take `Cc1nc2cc(C(F)(F)F)ccc2n1CCNc1nc(-c2ccc(F)cc2)cs1`: the “hERG current change (%, negative = inhibition) at 10uM” value worked out at 4.09%.

Take `COc1ccc(-c2[nH]ncc2/C=N\NS(=O)(=O)c2ccccc2)cc1OC`: the “hERG current change (%, negative = inhibition) at 10uM” value is reported as 8.63%. The figure for `COc1cc2c(C#N)c(N3CCOCC3)nc(N)c2c(N)n1` is 0.381%; for `COCC(CN1CCN(C2=NS(=O)(=O)c3ccccc32)CC1)OC(=O)c1ccccc1` (stereo not shown) it is -24%. Turning to `CC(C)C[C@H](NC(=O)c1[nH]cnc1C(=O)Nc1ccc(CNC(=O)OC(C)(C)C)cc1)C(=O)OC(C)(C)C`, the “hERG current change (%, negative = inhibition) at 10uM” value is reported as 16.1%. For `CC1(c2ccc(Cl)cc2)NC(=O)N(CC(=O)NC(=O)NCc2ccco2)C1=O` (stereo not shown) the value was 1.81%; for `S=C(CN1CCCC1=S)NCCc1ccccc1`, 14.3%; for `NC(=O)CSc1nnc(-c2cccs2)n1Cc1ccco1`, -13.9%. The figure for `O=C(CC(NCCc1ccccc1)C(=O)O)Nc1ccc(O)cc1` (stereo not shown) is -10.2%; for `C/C(CC(=O)Nc1ccccc1[N+](=O)[O-])=N\NC(=O)COc1ccccc1C` it is -5.65%.
